The RNAGym collection of RNA variant scans (doi:10.1093/nar/gkz1192)
Read counts are not given, so values of variants with three or more changes are uncertain.

B1: CPEB3 Ribozyme (parent)
chain: UAACAGGGGGCCACAGCAGAAGCGUUCACGUCGCAGCCCCUGUCAGAUUCUGGUGAAUCUGCGAAUUCUGCUGUAUAUCUC

Variants of: B1
Experiment: self-cleavage, relative activity (ratio to wild type); higher = more cleavage; in vitro, sequencing
In short: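 After error-prone PCR and barcoding, CPEB3 ribozyme mutant libraries were transcribed with T7 RNA polymerase at 37°C for 5 hours, then given 15 min with DNase I before an EDTA stop, and they cleaved during both steps. Reverse transcription with template switching preceded Illumina sequencing. Relative activity divides a variant's cleaved/total read fraction by the unmutated ribozyme's. At least 5 reads were required per variant, and three batches were averaged.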

Q: Which self-cleavage does the source give for UAACAGGGAGCCACAGCAGAAGCGUUCACGCCGCAGCCCCUGUCAGAUUCUGGUGAAACUGCGAAUACUGCCGUAUAUCUC [G9A U31C U58A U67A U72C] here?
A: Its self-cleavage is 0.11.

Q: For UAACAGGGAGCCACAGCAGAAGCGUUCACGUCGCAGCCCCAGUCGGAUUCUGGUGAAUCUGCGAAUUCCGCUGUAUAUCUC [G9A U41A A45G U69C], which self-cleavage is on record?
A: The self-cleavage was 0.11.

Q: For UAACAGGGAGCCACAGCAGAAGCGUUCACGUCGCAGCCCCAGUCAGAAUCUGGUGGAGCUGCGAAUUCUGCUGUAUAUCUC [G9A U41A U48A A56G U58G], which self-cleavage is on record?
A: Its self-cleavage is 0.19.

Q: With UAACAGGGAGCCACAGCAGAAGCGUUCACGUCGCAGCCCCAGUCAGAUUCUGGUGAAUCUGCGAAUUCUGCUGUAUACCUC [G9A U41A U78C] as the variant, how does the self-cleavage read?
A: Its self-cleavage is 0.39.

Q: Which self-cleavage does the source give for UAACAGGGAGCCACAGCAGAAGCGUUCACGUCGCAGCCCCCGUCAGCCUCUGGUGAAUCUGCGGACUCCGCUGUAUAUCUC [G9A U41C A47C U48C A64G U66C U69C] here?
A: The self-cleavage was 0.25.

Q: Which self-cleavage does the source give for UAACAGGGAGCCACAGCAGAAGCGUUCACGUCGCAGCCCCCGUCAGAUUCUGGUGUAUCUGCGAAUUCUGCUGUAUAUCUC [G9A U41C A56U] here?
A: The self-cleavage was 0.2.

Q: For UAACAGGGAGCCACAGCAGAAGCGUUCACGUCGCAGCCCCUGCCAGAUUCUGGUGAAACUGCGAAUUCUGCUGUAUAUCAC [G9A U43C U58A U80A], which self-cleavage is on record?
A: Its self-cleavage is 0.07.

Q: With UAACAGGGAGCCACAGCAGAAGCGUUCACGUCGCAGCCCCUGUCAGAAUCUGGUGAAUCUGCGAAUUCUGCUGUAUAUCCC [G9A U48A U80C] as the variant, how does the self-cleavage read?
A: Its self-cleavage is 0.09.

Q: Which self-cleavage does the source give for UAACAGGGAGCCACAGCAGAAGCGUUCACGUCGCAGCCCCUGUCAGACUCUGGUGAAUCUGCGAAUUCUGCCGUAUAUCCC [G9A U48C U72C U80C] here?
A: Its self-cleavage is 0.39.

Q: Which self-cleavage does the source give for UAACAGGGAGCCACAGCAGAAGCGUUCACGUCGCAGCCCCUGUCAGAUACUGGUGAAUCUGCGAAUUCCGCAGUAUAUCUC [G9A U49A U69C U72A] here?
A: The self-cleavage was 0.12.

Q: For UAACAGGGAGCCACAGCAGAAGCGUUCACGUCGCAGCCCCUGUCAGAUCCUGGUGAAUCAGCGGAUUCUGCUGUAUACCUC [G9A U49C U60A A64G U78C], which self-cleavage is on record?
A: Its self-cleavage is 0.28.

Q: For UAACAGGGAGCCACAGCAGAAGCGUUCACGUCGCAGCCCCUGUCAGAUUCCGGUGAAUCUGCGAAUUCUGCUGUAUAUCAC [G9A U51C U80A], which self-cleavage is on record?
A: Its self-cleavage is 0.41.

Q: Which self-cleavage does the source give for UAACAGGGAGCCACAGCAGAAGCGUUCACGUCGCAGCCCCUGUCAGAUUCUGGCGAAUCUGCGAUUUCUGCUGUAUAUCUC [G9A U54C A65U] here?
A: The self-cleavage was 0.05.

Q: With UAACAGGGAGCCACAGCAGAAGCGUUCACGUCGCAGCCCCUGUCAGAUUCUGGUGAAUCUGCGAACACUGCUGUAUCUCUC [G9A U66C U67A A77C] as the variant, how does the self-cleavage read?
A: The self-cleavage was 0.12.

Q: With UAACAGGGAGCCACAGCAGAAGCGUUCACGUCGCAGCCCCUGUCAGAUUCUGGUGAAUCUGCGAAUUCUGCUGCGUAUCUC [G9A U74C A75G] as the variant, how does the self-cleavage read?
A: The self-cleavage was 0.31.

Q: Which self-cleavage does the source give for UAACAGGGCGCCCCAGCAGAAGCGUUCACGUCGCAGCCCCUGUCUGACCCUGGUGAAUCUGCGAAUUCAGCUGUAUAUCUC [G9C A13C A45U U48C U49C U69A] here?
A: Its self-cleavage is 0.32.

Q: For UAACAGGGCGCCUCAGCAGAAGCGUCCACGUCGCGGCCCCUGUCAGAUUCUGGUGAAUCUGCGAAUUCUGCUGUAUAACUC [G9C A13U U26C A35G U78A], which self-cleavage is on record?
A: Its self-cleavage is 0.09.

Q: Which self-cleavage does the source give for UAACAGGGCGCCUCAGCAGAAGCGUUCACGACGCAGCCCCUGUCAGAUUCUGGUGAAUCUGCGAAUUCCGCUGUAUAUCUC [G9C A13U U31A U69C] here?
A: The self-cleavage was 0.05.

Q: For UAACAGGGCGCCACGGCAGAAGCGUUCACGUCGCAGCCCAUGUCAGAUUCUGGUGAAUCUGCGAAUUCUGCUGUAUAUCUC [G9C A15G C40A], which self-cleavage is on record?
A: Its self-cleavage is 0.28.

Q: With UAACAGGGCGCCACAGCCGAAGCGUUCGCGUCGCAGCCCCAGUCAGAUUCUGGUGAAUCUGCGAAUUCUGCAGCAUAUCUC [G9C A18C A28G U41A U72A U74C] as the variant, how does the self-cleavage read?
A: The self-cleavage was 0.43.

Q: Which self-cleavage does the source give for UAACAGGGCGCCACAGCGGAAGCGUCAACGUCGCAGCCCCUGUCAGAUUCUGGUGGAUCUGCGAAUACUGCUGUAUAUCUC [G9C A18G U26C C27A A56G U67A] here?
A: The self-cleavage was 0.04.

Q: Which self-cleavage does the source give for UAACAGGGCGCCACAGCUGAAGCGUUCACGUCGCAGCCCCUGUCAGAUUAUGGUGAAUCUGCGAGUUCUGCUGUAUAUCAC [G9C A18U C50A A65G U80A] here?
A: The self-cleavage was 0.05.

Q: Which self-cleavage does the source give for UAACAGGGCGCCACAGCAGAAGCGUUCCCGACGCAGCCCCUGUCAGAUUCUGGUGAAUCUGCGAAUUCUGCUGUAUAUCUC [G9C A28C U31A] here?
A: The self-cleavage was 0.05.

Q: Which self-cleavage does the source give for UAACAGGGCGCCACAGCAGAAGCGUUCGCGUCGCACCCCCUGUCAGAUUCUGGUGAAUCUGCGAAUUCUGCUGUAUAUCUC [G9C A28G G36C] here?
A: Its self-cleavage is 0.04.

Q: For UAACAGGGCGCCACAGCAGAAGCGUUCACGUCGCCGCCCCUGUCAGAUUCUGGUGAAUCUGCGAAUCCUGCAGUAUACCUC [G9C A35C U67C U72A U78C], which self-cleavage is on record?
A: The self-cleavage was 0.1.

Q: For UAACAGGGCGCCACAGCAGAAGCGUUCACGUCGCAGCCCCUGUCAGCUUCUGGUGAAUCUGCGGACUCUGCUGUAUAUCUC [G9C A47C A64G U66C], which self-cleavage is on record?
A: The self-cleavage was 0.27.

Q: For UAACAGGGCGCUACGGCAGAAGCGUUCACGUCGCAGCCCCUGUCAGAUUCUGGUGAAUCUGCGAAUUCUGCCGUAUAUCUC [G9C C12U A15G U72C], which self-cleavage is on record?
A: The self-cleavage was 0.4.

Q: Which self-cleavage does the source give for UAACAGGGCGCCAUAGCAGAAGCGUUCACGUCGCAGCCCCUGUCAGAUUCUGGUGACUCUGCGAAUUCUGCUGUAUAUCUC [G9C C14U A57C] here?
A: The self-cleavage was 0.05.

Q: With UAACAGGGCGCCACAGCAGAAGCGUUCACGUCGCAGCCCUUGUCAGAUUCUGGAGAAUCUGCGGAUUCUGCUGUAUAUCUC [G9C C40U U54A A64G] as the variant, how does the self-cleavage read?
A: The self-cleavage was 0.1.

Q: With UAACAGGGCGCCACACCAGAAGCGUUCACGUCGCAGCCCCCGUCAGAUUCUGGCGAAUCUGCGGAUUCUGCUGAAUAUCUC [G9C G16C U41C U54C A64G U74A] as the variant, how does the self-cleavage read?
A: Its self-cleavage is 0.04.

Q: Which self-cleavage does the source give for UAACAGGGCGCCACAGCAGAAGCGUUCACCUCGCGGCCCCUGUCAGAUCCUGGUGAAUCUGCGAAUUCAGCAGUAUAUCUC [G9C G30C A35G U49C U69A U72A] here?
A: The self-cleavage was 0.04.

Q: Which self-cleavage does the source give for UAACAGGGCGCCACAGCAGAAGCGUUCACGUCACAGCCCCUGUCAGAUUCUGGUGAAUCUGCGGAUUCUGCUGUAUAUCUC [G9C G33A A64G] here?
A: The self-cleavage was 0.3.

Q: For UAACAGGGCGCCACAGCAGAAGCGUUCACGUCGCAGCCCCUGUCAGAUUCUAGUGAAUCUGCGUAUUCUGCUGUAUAUCUC [G9C G52A A64U], which self-cleavage is on record?
A: The self-cleavage was 0.13.

Q: Which self-cleavage does the source give for UAACAGGGCGCCACAGCAGAAGCGUACACGUCGAAGCCCCUGUCAGAUUCGGGUGAAUCUGCGAAUUCUGCAGUAUAUCUU [G9C U26A C34A U51G U72A C81U] here?
A: The self-cleavage was 0.03.
